Data from the supplement of paper PMC6135742.
Structures can show the parent of a compound that is named as a salt. ± gives the standard deviation of the averaged measurements. Over roughly 2,600 compounds, “MBP+ mature oligodendrocyte number relative to DMSO vehicle control” has its median near -0.34; the highest 2% begin near 13. Some of the results follow.

What follows are compounds tested on jimpy (Plp1 jimpy) mouse iPSC-derived oligodendrocyte progenitor cells (assay: MBP+ mature oligodendrocyte number relative to DMSO vehicle control (SDs above negative control mean); higher = more surviving jimpy oligodendrocytes (rescue)). Details: 10 µM; 3 days.
Description: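 Primary phenotypic screen of >3,000 bioactive compounds (Selleck L1700 and Sigma LO1280 libraries) at a single dose of 10 µM. Compounds were added to jimpy (Plp1 mutant) mouse iPSC-derived OPCs at the start of thyroid hormone-induced oligodendrocyte differentiation, one well per compound in 384-well plates. After 3 days cells were stained for MBP, Sox10 and DAPI and imaged with an Operetta system. MBP+ oligodendrocyte number and total cell number were expressed as the number of SDs above the mean of the DMSO negative control on the same plate (n=16 control wells per plate). Hits were defined as >=4 SD for oligodendrocytes and >=2 SD for total cells.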

SMILES | MBP+ mature oligodendrocyte number
COc1ccc(-c2cc(=O)c3c(O)cc(O[C@@H]4O[C@H](CO[C@@H]5O[C@@H](C)[C@H](O)[C@@H](O)[C@H]5O)[C@@H](O)[C@H](O)[C@H]4O)cc3o2)cc1O [Diosmin] | 0.171
O=C(Nc1ccc2c(c1)CCN(Cc1ncn[nH]1)C2)c1ccccc1-c1ccc(C(F)(F)F)cc1 | 2
CC1(C)S[C@@H]2[C@H](NC(=O)[C@H](NC(=O)N3CCN(S(C)(=O)=O)C3=O)c3ccccc3)C(=O)N2[C@H]1C(=O)O [Mezlocillin Sodium] | 5.05
Cn1c(=O)cc(N2CCC[C@@H](N)C2)n(Cc2ccccc2C#N)c1=O [Alogliptin] | -0.0546
CCCCCCCN(CC)CCCC(O)c1ccc(NS(C)(=O)=O)cc1 (centres undefined) [Ibutilide Fumarate] | 2.63
Cc1nnc(C(C)C)n1C1C[C@H]2CC[C@@H](C1)N2CC[C@H](NC(=O)C1CCC(F)(F)CC1)c1ccccc1 (stereo in doubt) [Maraviroc] | 0.883 ± 1.5
c1ccc2[nH]c(-c3cscn3)nc2c1 [Thiabendazole] | 2.95
Cn1cc(-c2ccc3nnc(C(F)(F)c4ccc5ncccc5c4)n3n2)cn1 | -2.16
CCC(CC)CC1(C(=O)Nc2ccccc2SC(=O)C(C)C)CCCCC1 | -1.25
CN1[C@@H](CC(=O)c2ccccc2)CCC[C@H]1C[C@H](O)c1ccccc1 [alpha-Lobeline hydrochloride] | -1.03
CSc1nc(N)c2ncn([C@@H]3O[C@H](COP(=O)(O)OP(=O)(O)OP(=O)(O)O)[C@H](O)C3O)c2n1 (some centres undefined) [2-Methylthioadenosine triphosphate tetrasodium] | 4.44
CC(=O)C(C)=O [2,3-Butanedione] | -0.387
COc1cc(C(O)C(=O)O)ccc1O (racemic) [(±)-Vanillylmandelic acid] | 0.921
CNC(=O)Nc1ccc(-c2nc(N3CC4CCC(C3)O4)c3cnn(C4CCC5(CC4)OCCO5)c3n2)cc1 | -5.69
COC1=C2C[C@@H](C)C[C@H](OC)[C@H](O)[C@@H](C)/C=C(\C)[C@H](OC(N)=O)[C@@H](OC)/C=C\C=C(/C)C(=O)NC(=CC1=O)C2=O [Geldanamycin] | < -6.01
CN1CC2c3ccccc3Oc3ccc(Cl)cc3C2C1 (centres undefined) [Asenapine] | -5.83
COc1cc(C(=O)NC2CCCNC2)cc(OC)c1OC (centres undefined) [Troxipide] | -0.185
C[C@]12CC[C@@H]3c4ccc(O)cc4CC[C@H]3[C@@H]1CCC2=O [Estrone] | 21.6 ± 26
CCCCCCCCc1ccc(CCC(N)(CO)CO)cc1 [Fingolimod (FTY720) HCl] | -6.27
CCCCCCCC/C=C\CCCCCCCC(=O)NCCc1ccc(O)c(O)c1 [N-Oleoyldopamine] | < -3.85
CC(C)Cc1ccc(C(C)C(=O)O)cc1 (racemic) [(±)-Ibuprofen] | -0.0882
COc1cnc(NS(=O)(=O)c2ccc(N)cc2)nc1 [Sulfameter] | -0.917
Cc1cccc(CN2CCN(C(c3ccccc3)c3ccc(Cl)cc3)CC2)c1 (centres undefined) [Meclizine 2HCl] | -4.88
CC1CNCCN1S(=O)(=O)c1cccc2cnccc12 (centres undefined) | -1.23
CNCCC(Oc1ccccc1OC)c1ccccc1 (centres undefined) [Nisoxetine hydrochloride] | -0.911

SMILES | MBP+ mature oligodendrocyte number
COc1cc(CCC(C)=O)ccc1O [Vanillylacetone] | 1.35
O=NN(CCCl)C(=O)NC1CCCCC1 [Lomustine] | -0.557
CCOC(=O)C1=C[C@]2(CC)CCCN3CCc4c(n1c1ccccc41)[C@@H]32 [Vinpocetine] | -1.07
CC(C)c1cc(C(=O)N2Cc3ccc(CN4CCN(C)CC4)cc3C2)c(O)cc1O | < -6.7
Cc1nc(NC(=O)N2CCC[C@H]2C(N)=O)sc1-c1ccnc(C(C)(C)C(F)(F)F)c1 | -5.69
CC(C)C[C@H](NC(=O)[C@H]1O[C@@H]1C(=O)O)C(=O)NCCCCN=C(N)N | -4.25 ± 0.29
CC1(C)NC(=O)N(c2ccc([N+](=O)[O-])c(C(F)(F)F)c2)C1=O [Nilutamide] | -0.755
CN(C)Cc1ccc(-c2nc3cccc4c3n2CCNC4=O)cc1 | 2.97
O=C(/C=C\n1cnc(-c2cc(C(F)(F)F)cc(C(F)(F)F)c2)n1)NNc1cnccn1 | -6.01
Cc1[nH]c(/C=C2\C(=O)Nc3ccc(S(=O)(=O)N(C)c4cccc(Cl)c4)cc32)c(C)c1C(=O)N1CCN(C)CC1 | < -6.7
C=C(C)[C@@H]1CC=C(C(=O)O)CC1 [(-)-Perillic acid] | -0.711
COC(=O)[C@@H]1[C@H]2C[C@H]3c4[nH]c5ccccc5c4CCN3C[C@@H]2CC[C@@H]1O [Yohimbine hydrochloride] | -2.21
COC(=O)[C@@H]1[C@H]2C[C@H]3c4[nH]c5ccccc5c4CCN3C[C@@H]2CC[C@@H]1O [Yohimbine HCl] | -3.35
Oc1c2ccccc2c2c3c(cccc13)N=N2 | -2.59 ± 1.1
O=C1CCc2cc(OCCCCc3nnnn3C3CCCCC3)ccc2N1 [Cilostazol] | 6.25 ± 6.1
N#C[C@@H]1C[C@@H]2C[C@@H]2N1C(=O)[C@@H](N)C12CC3CC(CC(O)(C3)C1)C2 [Saxagliptin] | 6.46
CCS(=O)(=O)CCn1c([N+](=O)[O-])cnc1C [Tinidazole] | 0.744
CCCCOc1cc(C(=O)NCCN(CC)CC)c2ccccc2n1 [Dibucaine HCl] | 7.16
O=P(O)(O)C(Cl)(Cl)P(=O)(O)O [Clodronic acid] | 0.869
Cc1coc2c1C(=O)C(=O)c1c-2ccc2c(C)cccc12 [Tanshinone I] | 2.8
C[C@@]12C[C@@]3(O)O[C@@H](O1)[C@]1(COC(=O)c4ccccc4)[C@H]3C[C@@]12O[C@@H]1O[C@H](CO)[C@@H](O)[C@H](O)[C@H]1O [Paeoniflorin] | -0.556
COc1cc(Nc2nc3ccccc3nc2NS(=O)(=O)c2ccc(NC(=O)c3ccc(C)c(OC)c3)cc2)cc(OC)c1 | 3.94
Cc1ccccc1-n1c(Cn2nc(-c3cccc(O)c3)c3c(N)ncnc32)nc2cccc(C)c2c1=O | -4.75
CCC1=C(C)CN(C(=O)NCCc2ccc(S(=O)(=O)NC(=O)N[C@H]3CC[C@H](C)CC3)cc2)C1=O [Glimepiride] | 0.72
